Laboratory results reported in PubChem BioAssay AID1508624 (National Center for Advancing Translational Sciences (NCATS), 2021).
Hit rate of the full screen: of about 48,000 compounds, about 120 (0.25%) were called active. Inconclusive means that the source gave no clear call. Such entries were picked first, then a sample of the others. Calls come from the whole dose curve; as a rule, active = well fitted activation curve with a large enough effect; inconclusive = small, poorly fitted or top-dose-only effect, or another doubt; inactive = no such curve, though single readings can be large or run the other way. Potencies beside an inconclusive call are fits to weak or partial responses and may not hold up.

Experiment: Primary qHTS for Identification of Small Molecule Activators of Huntingtin-Antisense Promoter Activity; note: nearly all actives have a fitted effect of over 55% in size
Conditions: HEK293 HTT-AS promoter firefly luciferase reporter, 24 h; activity change, positive = activation: at 57.5 µM (top of the series), percent change from vehicle, -100% = no light unless noted
Procedure, shortened: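 Firefly luciferase signal from promoter-reporter HEK293 cells was scaled between vehicle (0%) and zero RLU (-100%). Compounds were tested at final concentrations of up to 57.5 uM over 24 h at 37 degrees C. PTC124 at 50 uM final served as control inhibitor.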
Potency is the fitted concentration of half-maximal effect; tags give direction and shape of the fitted curve.

SMILES | Potency | activity change, positive = activation
COCCNC(=O)c1ccc(-n2c(-c3ccccc3)cc3c2CCC(C)C3)cc1 (configuration not stated) | inactive | –
COc1ccccc1OCc1nnc(-c2ccccc2)o1 | inconclusive: 15.8 µM [activator, single point] | –
COc1ccc2sc(N(Cc3cccnc3)C(=O)c3cccs3)nc2c1 | inactive | –
CCOC(=O)/C(C#N)=C/c1ccc(-c2ccccc2)o1 | inconclusive: 17.8 µM [activator, single point] | –
CC1CCn2c(nc3cc(C(=O)NCCc4ccccc4)ccc32)C1 (configuration not stated) | inconclusive: 0.355 µM [activator, full curve, poor fit] | –
CCC(C)n1c(=N)c(C(=O)NC2CCCC2)cc2c(=O)n3ccccc3nc21 (configuration not stated) | inactive | –
Cn1c(NCCN(CCO)CCCc2ccc([N+](=O)[O-])cc2)cc(=O)n(C)c1=O | inconclusive: 21.7 µM [activator, partial curve] | –
COc1ccc(CNC(=O)c2c(O)nc3cc(C)ccn3c2=O)cc1 | inconclusive: 11.2 µM [activator, partial curve] | –
Cc1ccc(CSc2nc3cccnc3n2Cc2ccc(C(=O)NCCc3ccccc3)cc2)cc1 | inconclusive: 1.78 µM [activator, full curve, poor fit] | –
CCOc1ccc(NC(=O)NCCCN2CCN(c3ccc(F)cc3)CC2)cc1 | – | inconclusive: 23.6% [activator]
Cc1cccc(-c2noc(-c3cccnc3NCc3ccco3)n2)c1 | inconclusive: 1.78 µM [activator, full curve] | –
CC(C)c1ccc(OCC(=O)Nc2c(Cl)ccc3nsnc23)cc1 | inactive | –
Cc1ccc(CNc2nc3ccccc3c3nc(-c4cccc(C)c4)nn23)cc1 | inconclusive: 25.1 µM [activator, single point] | –
Cc1cc2oc(=O)c(CC(=O)O)c(C)c2c2occ(-c3ccc(F)cc3)c12 | inconclusive: 17.8 µM [activator, single point] | –
O=C(c1ccc2c(c1)OCCO2)N(Cc1cccnc1)c1nc2c(F)cccc2s1 | inconclusive: 3.55 µM [activator, single point] | –
Cn1c(C(=O)NCCc2ccccc2)cc2c(=O)n3ccccc3nc21 | inconclusive: 2 µM [activator, full curve] | –
Cc1ccc(-c2csc(=Nc3ccccc3)n2Cc2ccc3c(c2)OCO3)cc1C | inconclusive: 39.8 µM [activator, single point] | –
COc1ccccc1C(=O)n1nc(-c2ccco2)nc1NCc1ccc(Cl)cc1 | inconclusive: 5.01 µM [activator, full curve] | –
COc1ccc(N2CCN(C(=O)c3ccc4c(c3)N(Cc3ccc(F)cc3)C(=O)c3ccccc3S4=O)CC2)cc1 (configuration not stated) | inactive | –
CCN1CCN(c2csc3ccc(C)cc3c2=O)CC1 | inconclusive: 12.6 µM [activator, partial curve] | –
CC(=O)Nc1c(C)nn(-c2ccccc2)c1N1CCC(C(=O)Nc2ccc(F)cc2Cl)CC1 | inconclusive: 22.4 µM [activator, partial curve, poor fit] | –

SMILES | Potency | activity change, positive = activation
CCOC(=O)C1CCCN(C(=O)c2cccc(NC(=O)c3nsc4ccccc34)c2)C1 (configuration not stated) | inconclusive: 1.58 µM [activator, full curve, poor fit] | –
Cc1ccc(S(=O)(=O)c2cnc(SC(C)C(=O)Nc3ccccc3)[nH]c2=O)cc1 (configuration not stated) | inconclusive: 5.01 µM [activator, partial curve] | –
CCN1CCN(c2oc(/C=C/c3ccc(OC)c(OC)c3)nc2C#N)CC1 | inactive | –
Clc1ccc(-c2cn3ncsc3n2)cc1 | inconclusive: 1.58 µM [activator, full curve, poor fit] | –
Cc1ccc2[nH]c(CSc3nnc(NC(=O)COc4ccccc4)s3)cc(=O)c2c1 | inactive | –
Cc1ccc(-c2nc(C)c(CCNC(=O)c3ccco3)s2)cc1 | inconclusive: 8.91 µM [activator, partial curve] | –
Cc1ccc(CNC(=O)c2ccc3nc(N4CCCCC4)sc3c2)cc1 | inactive | –
COc1ccc(CCNS(=O)(=O)c2ccc3c(c2)CC(C)N3C(=O)C2CCC2)cc1OC (configuration not stated) | inactive | –
Nc1c(-c2nc(-c3cccs3)no2)nnn1-c1ccccc1Cl | inconclusive: 0.501 µM [activator, full curve, poor fit] | –
COc1ccccc1-c1nc2c3c(-c4ccccc4)c(-c4ccccc4)oc3ncn2n1 | inconclusive: 2.82 µM [activator, partial curve, poor fit] | –
Cc1nnc(SCc2ccccc2)c2cc3sccc3n12 | inconclusive: 8.91 µM [activator, partial curve] | –
CCOc1ccc(C(=O)Nc2ccc(-c3nc4ccccc4s3)c(C)c2)cc1OCC | inconclusive: 20 µM [activator, partial curve, poor fit] | –
Cc1cccc(N2CCN(C(=O)c3ccc(NC(=O)c4nsc5ccccc45)cc3)CC2)c1C | inconclusive: 0.282 µM [activator, full curve, poor fit] | –
CCc1nc2c(cnn2-c2ccc(Cl)cc2)c(=O)n1-c1ccc(OC)c(Cl)c1 | inactive | –
Cc1cccc(-n2ncc3c(N4CCN(CCO)CC4)ncnc32)c1 | inconclusive: 11.2 µM [activator, partial curve] | –
O=C(Nc1nnc2n1CCS2)c1ccccc1 | inconclusive: 22.4 µM [activator, single point] | –
O=C1c2[nH]nc(-c3ccccc3O)c2C(c2ccc(Cl)cc2)N1CCc1ccccc1 (configuration not stated) | inactive | –
Cc1cc(C)cc(NC(=O)c2ncn(-c3ccccc3)n2)c1 | inconclusive: 15.8 µM [activator, partial curve, poor fit] | –
CCc1ccc(NC(=O)N(Cc2cn(CC)c3ccccc23)C2CCCCC2)cc1 | inconclusive: 6.31 µM [activator, single point] | –
CC(C)CCNC(=O)c1ccc2c(c1)nc1n2CCCCC1 | inconclusive: 2.51 µM [activator, partial curve, poor fit] | –
COCCNc1ccc(-c2nc(-c3ccccn3)no2)cc1[N+](=O)[O-] | inconclusive: 0.355 µM [activator, full curve, poor fit] | –
